Test results published in PubChem BioAssay AID1461 (National Center for Advancing Translational Sciences (NCATS), 2008).
Screen size: about 220,000 compounds; about 2,300 (1%) were called active. This list was built around the results that the source calls inconclusive (neither active nor inactive); the mix of calls is not that of the screen. Calls follow the shape of the dose curve; as a rule, active = well fitted inhibition curve with a large enough effect; inconclusive = small, poorly fitted or top-dose-only effect, or effect the other way; inactive = no such curve, though single readings can be large or run the other way. No potency is given beside an inconclusive call; the fits are too rough.
% is scaled to controls: 0 for no effect and ±100 for the full control effect; potency is read from the fitted curve at half-maximal effect; tags tell the direction and shape of the fitted curve.
Also: nearly all actives have a fitted effect of over 50% in size.

These molecules were tested against Neuropeptide S receptor (Homo sapiens) (UniProt Q6W5P4) (assay: qHTS Assay for Antagonists of the Neuropeptide S Receptor: cAMP Signal Transduction). Conditions: CHO-NPSR cells, cAMP TR-FRET, antagonist mode; activity change, negative = inhibition: at 38.3 µM (top of the series) unless noted.
Sequence of UniProt Q6W5P4 (Q6W5P4 whole entry, looked up): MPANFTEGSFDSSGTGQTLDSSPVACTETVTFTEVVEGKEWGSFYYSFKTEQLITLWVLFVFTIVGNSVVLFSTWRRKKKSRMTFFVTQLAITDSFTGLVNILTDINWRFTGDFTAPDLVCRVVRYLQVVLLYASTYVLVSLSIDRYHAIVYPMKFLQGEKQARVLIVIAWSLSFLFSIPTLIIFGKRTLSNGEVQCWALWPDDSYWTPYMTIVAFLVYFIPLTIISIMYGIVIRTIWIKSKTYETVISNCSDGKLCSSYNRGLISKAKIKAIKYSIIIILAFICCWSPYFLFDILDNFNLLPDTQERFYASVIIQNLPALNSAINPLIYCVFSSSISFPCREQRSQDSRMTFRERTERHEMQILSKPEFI
In the case of `C/C(=N\NS(=O)(=O)c1ccccc1)c1cc(Cl)cc(Cl)c1O`, the “activity change, negative = inhibition” value is reported as inactive: -4.38%. With `COc1ccc(N2CCN(C(c3ccccc3)c3nnnn3Cc3ccc(F)cc3)CC2)cc1` (configuration not stated) the Potency was inconclusive [inhibitor, partial curve]. `Cc1cccc(-c2nc3c(c(SCC(=O)N(C)C)n2)CCCC3)c1` was tested, and the Potency was inconclusive [inhibitor, partial curve]. For `O=C(Cn1cc(C(=O)c2cccs2)c2ccccc21)NCC1CCCO1` (configuration not stated), the “activity change, negative = inhibition” value was inactive: 1.51% [at 46.1 µM]. With `O=C(c1scc2c1CCCC2)N1CCCCC1` the “activity change, negative = inhibition” value was inactive: -9.32% [at 46.1 µM]. `FC(F)(F)c1nnc2c(Sc3ccc(Cl)cc3)nc3ccccc3n12` was tested, and the Potency was inconclusive [inhibitor, single point]. With `CCOC(=O)c1c(NC(=S)Nc2ccc(OC)cc2)sc2c1CCC2` the Potency was inconclusive [inhibitor, single point]. For `COc1cc(C#CC#CCN2CCCCC2)ccc1O`, the activity change, negative = inhibition was inactive: -23.2% [at 7.67 µM]. For `Cc1ccc2cccc(OCC(=O)NCc3ccco3)c2n1`, the Potency was inconclusive [inhibitor, single point]. For `OCC1(CCOc2ccccc2)CCN(CC2=Cc3cc(Cl)ccc3OC2)CC1`, the Potency was inconclusive [activator, single point]. For `COc1cc2cc(C(c3nnnn3C3CCCCC3)N(C)C3CCCCC3)c(=O)[nH]c2cc1OC` (configuration not stated), the Potency was inconclusive [inhibitor, single point]. In the case of `Cc1cccc(Nc2nc(N)nc(CN3CCN(Cc4ccc5c(c4)OCO5)CC3)n2)c1`, the Potency is reported as inconclusive [inhibitor, partial curve, poor fit]. In the case of `CCN(Cc1ccccc1)C(=O)CS(=O)(=O)c1ccccc1`, the “activity change, negative = inhibition” value is reported as inactive: 3.18%. `COc1ccc(C2NC3=C(CCCC3)C(C#N)(C#N)C2(C#N)C#N)cc1` (configuration not stated) was tested, and the “activity change, negative = inhibition” value was inactive: -17.7% [at 46.1 µM]. For `CCc1nnc(NC(=O)CSc2ccc(-c3nc4ccc(C)cc4[nH]3)cn2)s1`, the Potency was inconclusive [inhibitor, single point]. For `CCOC(=O)c1sc2nc3n(c(=O)c2c1C)CCC(C)CC3` (configuration not stated), the Potency was inconclusive [inhibitor, single point]. In the case of `Cc1ccc(-c2nc(N)sc2-c2ccc(C)cc2)cc1`, the Potency is reported as inconclusive [inhibitor, single point]. `Nc1ccc(C(=O)Nc2ccc(Nc3ccncc3)cc2)cc1` was tested, and the “activity change, negative = inhibition” value was inactive: -16.2%. `Cc1ccc(NCc2nnc(SCc3ccc(C#N)cc3)n2Cc2ccco2)c(C)c1` was tested, and the Potency was inconclusive [inhibitor, single point]. `COc1ccc(C2CC2/C(=N/OC(=O)c2cccs2)c2ccccc2)cc1` (configuration not stated) was tested, and the Potency was inconclusive [inhibitor, partial curve, poor fit]. For `COc1ccc(C(=O)c2cnc3cc4c(cc3c2C)OCO4)cc1`, the Potency was inconclusive [inhibitor, single point]. For `O=C(Nc1ccc2nc(-c3ccccc3)oc2c1)c1ccco1`, the Potency was inconclusive [inhibitor, partial curve]. For `COc1ccc(CN2CCCC(C(=O)c3cccc(C(F)(F)F)c3)C2)cc1O` (configuration not stated), the “activity change, negative = inhibition” value was inactive: 41.4%. `NC(=S)n1[nH]c(-c2ccc([N+](=O)[O-])cc2)c(N=Nc2ccc(O)cc2)c1=O` was tested, and the Potency was inconclusive [activator, partial curve]. In the case of `Cc1ccc(COn2c(-c3ccc(Cl)cc3Cl)nc3ncccc32)cc1`, the Potency is reported as inconclusive [inhibitor, single point]. For `CN(C)CCNc1nc(-c2ccco2)c2c(c1C#N)CC(C)(C)OC2`, the “activity change, negative = inhibition” value was inactive: 6.98% [at 46.1 µM]. In the case of `CC(C)c1ccc(NC(=O)c2cnn(-c3ccccc3)c2NC(=O)c2ccco2)cc1`, the Potency is reported as inconclusive [inhibitor, partial curve]. For `Cc1ccc(N(Cc2cc3ccccc3[nH]c2=O)C(=O)c2cccs2)cc1C`, the Potency was inconclusive [activator, single point]. For `CCOC(=O)c1sc(=NC(=O)c2ccc(OC(C)C)cc2)n(C)c1C`, the Potency was active: 5.01 µM. `CCOC(=O)C1=C(CC)OC(N)=C(C#N)C1c1cccs1` (configuration not stated) was tested, and the “activity change, negative = inhibition” value was inactive: 10.9% [at 46.1 µM]. In the case of `COc1ccccc1NC(=O)C1=C(C)Nc2nnnn2C1c1cc(Br)ccc1OC` (configuration not stated), the Potency is reported as inconclusive [inhibitor, partial curve]. `CCOC(=O)/C(C#N)=C/Nc1ccsc1C(=O)OC` was tested, and the Potency was inconclusive [activator, single point]. `Cc1cccnc1Nc1nc(-c2ccccn2)cs1` was tested, and the Potency was active: 0.794 µM. In the case of `C=CCn1c(SCc2csc(-c3ccc(C)cc3)n2)nnc1-c1ccccc1OC`, the Potency is reported as inconclusive [inhibitor, single point]. For `CCOC(=O)/C(=N\Nc1ccccc1Cl)N1CCN(c2ccccc2OC)CC1`, the Potency was inconclusive [inhibitor, single point]. `Clc1cc(Cl)c(OCc2nc(-c3ccccn3)no2)cc1Cl` was tested, and the Potency was inconclusive [inhibitor, single point]. `CCOc1ccc2[nH]c(=O)c(CN(CCO)C(=O)c3ccc(Br)cc3)cc2c1` was tested, and the Potency was inconclusive [activator, single point]. With `CN(CCCCCNC(=O)/C=N/O)Cc1ccccc1` the “activity change, negative = inhibition” value was inactive: 4.76% [at 46.1 µM]. For `Cc1c(C(=O)N2CCCc3ccccc32)sc2nc(-c3ccccc3)cn12`, the Potency was inconclusive [inhibitor, single point]. In the case of `OCCN(Cc1ccccc1)C(=S)Nc1ccc(F)cc1`, the “activity change, negative = inhibition” value is reported as inactive: 2.79%. `Cc1cccc(C)c1N=Cc1c(O)n(-c2nccs2)c(=O)c2ccccc12` was tested, and the Potency was inconclusive [inhibitor, single point]. With `Cc1ccc(N(CC(=O)N/N=C/c2cc(C)n(-c3ccccc3)c2C)S(C)(=O)=O)c(C)c1` the Potency was inconclusive [activator, partial curve, poor fit]. `CCOc1cc(-c2cc(-c3ccc(OC)cc3)nc(N)c2C#N)ccc1O` was tested, and the Potency was inconclusive [inhibitor, single point]. `CCCCOc1ccc(Cl)cc1CSc1nnc(C)n1N` was tested, and the “activity change, negative = inhibition” value was inactive: -1.66% [at 46.1 µM]. For `O=C(NC(Nc1nc2ccc([N+](=O)[O-])cc2s1)(C(F)(F)F)C(F)(F)F)c1cccnc1`, the “activity change, negative = inhibition” value was inactive: -31.7%. `C=C(C)C1Cc2c(C)nn(-c3nc(C)cc(C)n3)c2C1` (configuration not stated) was tested, and the Potency was inconclusive [inhibitor, full curve, poor fit]. With `CCOc1ccc2cc(C#N)c(SCC(=O)N3CCC(C)CC3)nc2c1` the Potency was inconclusive [inhibitor, partial curve]. `O=[N+]([O-])c1ccc(Cl)c(/C=N/N2CCN(Cc3ccccc3Cl)CC2)c1` was tested, and the “activity change, negative = inhibition” value was inactive: -20.2% [at 46.1 µM]. In the case of `CCCCN1CCC(COC(=O)c2cc(Cl)c(N)c3c2OCCO3)CC1`, the Potency is reported as inconclusive [activator, full curve, poor fit]. `CCN(CC)c1ccc2c(Cl)c(Br)c(=O)oc2c1` was tested, and the Potency was active: 3.16 µM. For `CCOC(=O)n1c(=O)n(Cc2c(Cl)cccc2Cl)c2ccccc21`, the Potency was inconclusive [inhibitor, single point]. For `Cc1ccc(-n2c(CCC(=O)O)ccc2-c2cccs2)cc1C`, the “activity change, negative = inhibition” value was inactive: -4.95% [at 46.1 µM]. `C/C(CCc1ccc2c(c1)OCO2)=N\N=C(/N)SC1CC(=O)N(c2ccc(Cl)cc2)C1=O` (configuration not stated) was tested, and the Potency was inconclusive [inhibitor, single point]. With `O=C(CSc1ncnc2scc(-c3ccccc3)c12)N1CCN(c2ccccc2F)CC1` the Potency was inconclusive [inhibitor, single point]. For `O=C(Nc1ccccc1OC(F)F)c1cc2c(s1)CCC2`, the “activity change, negative = inhibition” value was inactive: -8.47%. With `CCN1CCN(C(=O)Cn2c(=O)sc3ccccc32)CC1` the Potency was inconclusive [inhibitor, single point]. In the case of `Cn1c2ccccc2c2n[nH]c(=O)nc21`, the “activity change, negative = inhibition” value is reported as inactive: 1.99%. For `O=C(Cc1ccccc1)NCC(=O)OCC(=O)c1ccccc1Cl`, the “activity change, negative = inhibition” value was inactive: 16.4%. With `CN(c1ccccc1)S(=O)(=O)c1ccc(NC(=S)NC(=O)c2ccccc2)cc1` the Potency was inconclusive [inhibitor, single point]. For `O=C(Nc1ccccc1)c1ccccc1OCC(O)CN1C(=O)c2ccccc2S1(=O)=O` (configuration not stated), the Potency was inconclusive [inhibitor, partial curve, poor fit]. For `COc1ccc(CN(C(=O)CN2C(=O)C(C)Oc3ccccc32)C2CCCC2)c(OC)c1` (configuration not stated), the Potency was inconclusive [inhibitor, partial curve, poor fit]. For `Cc1cc(C)c(N2CCN(S(=O)(=O)N3CCCCCC3)CC2)c(C)c1`, the Potency was inconclusive [inhibitor, single point]. In the case of `N#C/C(=C\c1c[nH]c2ccccc12)c1nnc2n1CCCCC2`, the Potency is reported as inconclusive [activator, single point]. With `Cc1cc2cc3c(cc2nc1SCC(=O)Nc1nc(C)c(C)s1)OCO3` the “activity change, negative = inhibition” value was inactive: -3.14% [at 46.1 µM]. `CCOc1ccccc1C1CC(=O)NC(SCC)=C1C#N` (configuration not stated) was tested, and the Potency was inconclusive [activator, single point]. In the case of `O=c1[nH]c(=S)c2ncn(-c3ccccc3)c2[nH]1`, the “activity change, negative = inhibition” value is reported as inactive: 4.96%. In the case of `CCOC(=O)N1CCN(c2ccc3nnnn3n2)CC1`, the Potency is reported as inconclusive [inhibitor, single point]. With `Cn1cc([N+](=O)[O-])c(C(=O)N(Cc2ccccc2)Cc2ccccc2)n1` the “activity change, negative = inhibition” value was inactive: 4.54%. In the case of `CCCCCCCCn1c2c(c(=N)c3c1CCC3)CCCC2`, the Potency is reported as inconclusive [activator, partial curve]. With `CC(C)C(=O)c1cc2c(cc1NC(=O)c1ccccc1)OCCO2` the Potency was inconclusive [inhibitor, single point]. In the case of `O=c1oc2ccccc2cc1-c1cn2ccccc2n1`, the “activity change, negative = inhibition” value is reported as inactive: 12.1%. For `CCN(CC)c1ccc(CNc2nc3ccccc3n2CCN2CCCCC2)cc1`, the Potency was inconclusive [inhibitor, single point].
